Data from article PMC9876986, “Direct cell extraction of membrane proteins for structure–function analysis” (Scientific Reports, 2023).

Target: the molecule itself
Experiment: cryo-EM structure; Salipro-mPANX1 nanoparticles, 2.5 mg/ml, with 0.5 mM Fos-Choline 8; C7 symmetry; 3.1 Å

B1: mouse pannexin1 (mPANX1), tags cleaved off, in Salipro (saposin A-lipid) nanoparticles (natural protein)
chain: not shown
notes: construct FLAG-3C-mPANX1-3C-GFP-StrepII, cut at both PreScission sites; The particle also holds saposin A and endogenous lipids of the cells; also called Salipro-mPANX1; source: Expi293 cells, transiently transfected; not shown: FLAG, N-terminal, cleaved; GFP, C-terminal, cleaved; Twin Strep, C-terminal, cleaved
  stoichiometry N: 7
